Experimental data published in the supplement of paper PMC10441789.
This is one part of the list. Antibody binding of pooled human sera (four to six donors per pool; dilution not stated) to peptides of the Trypanosoma cruzi antigen TSSA on microarrays. Quantile-normalised fluorescence in arbitrary units, mean of duplicate arrays; higher = more binding. No active / inactive call. The uninfected pools are read here as the healthy donors of the same country. The strongest signals lie near the top of the scale (about 60,000).

Legend:
Assay in all cases: antibody binding signal (normalised fluorescence) (arbitrary fluorescence units); higher = stronger serum antibody binding to peptide
[1] = tested on: pooled sera of chronic Chagas disease patients, Argentina
Description: (§1)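 Microarray of 15-residue peptides over residues 30-55 of Trypanosoma cruzi TSSAII, each with 1 to 10 substitutions at naturally variable positions, probed with one serum pool per country.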

[2] = tested on: pooled sera of chronic Chagas disease patients, Bolivia
Description: as §1

[3] = tested on: pooled sera of chronic Chagas disease patients, Brazil
Description: as §1

[4] = tested on: pooled sera of chronic Chagas disease patients, Colombia
Description: as §1

[5] = tested on: pooled sera of chronic Chagas disease patients, Mexico
Description: as §1

[6] = tested on: pooled sera of chronic Chagas disease patients, USA
Description: as §1

[7] = tested on: pooled sera of uninfected people, Argentina
Description: as §1

[8] = tested on: pooled sera of uninfected people, Bolivia
Description: as §1

[9] = tested on: pooled sera of uninfected people, Brazil
Description: as §1

[10] = tested on: pooled sera of uninfected people, Mexico
Description: as §1

[11] = tested on: pooled sera of uninfected people, USA
Description: as §1

Sequence | antibody binding signal [1] | antibody binding signal [2] | antibody binding signal [3] | antibody binding signal [4] | antibody binding signal [5] | antibody binding signal [6] | antibody binding signal [7] | antibody binding signal [8] | antibody binding signal [9] | antibody binding signal [10] | antibody binding signal [11]
SGKDNKTATGETPSQ | 637 | 1050 | 4810 | 1830 | 335 | 5950 | 210 | 271 | 230 | 113 | 195
KKAATGETPSQPGAS | 1030 | 878 | 31600 | 129 | 141 | 7670 | 351 | 349 | 120 | 79.2 | 381
DNKTATGGAPSQSGA | 621 | 529 | 907 | 624 | 456 | 392 | 346 | 196 | 457 | 411 | 226
GTENKPAAGEAPSPP | 44300 | 6100 | 30100 | 535 | 1520 | 14100 | 326 | 1330 | 315 | 130 | 119
TENKPAAGGTPSQPG | 43800 | 1080 | 9240 | 1510 | 763 | 1890 | 293 | 573 | 804 | 542 | 212
PPSGTDNKTATGEAP | 33800 | 34900 | 44000 | 779 | 3260 | 22900 | 459 | 467 | 674 | 173 | 263
KDNKAATGETPSQSG | 3230 | 728 | 19800 | 194 | 328 | 11300 | 328 | 931 | 191 | 214 | 103
TDKKAAAGETPSPSG | 514 | 286 | 800 | 369 | 373 | 2410 | 148 | 189 | 220 | 406 | 1970
KDKKPAAGGTPSQSG | 157 | 171 | 213 | 1060 | 171 | 269 | 105 | 74.9 | 659 | 76.8 | 86.7
SGTEKKTAAGEAPSP | 423 | 581 | 1340 | 661 | 611 | 7990 | 152 | 531 | 154 | 141 | 142
TDNKTAAGEAPSQPG | 6210 | 21100 | 38300 | 165 | 260 | 8160 | 132 | 247 | 316 | 114 | 132
NKTAAGGTPSQSGAS | 1730 | 228 | 1950 | 6150 | 1380 | 1580 | 911 | 965 | 1410 | 2290 | 1040
SGTEKKAATGGAPSP | 3180 | 255 | 2360 | 1560 | 2560 | 2500 | 513 | 1640 | 154 | 148 | 193
